PubChem BioAssay AID887 (National Center for Advancing Translational Sciences (NCATS), 2007)
About 1,100 (1.5%) of roughly 74,000 compounds were called active. The inconclusive results got no clear call from the source; some entries with a clear call stand among them for comparison. Calls come from the whole dose curve; as a rule, active = well fitted inhibition curve with a large enough effect; inconclusive = small, poorly fitted or top-dose-only effect; inactive = no such curve, though single readings can be large or run the other way. Potencies of inconclusive entries are left out as doubtful fits.

Target: Polyunsaturated fatty acid lipoxygenase ALOX15 (Homo sapiens) (UniProt P16050)
Experiment: qHTS Assay for Inhibitors of 15-hLO (15-human lipoxygenase); note: nearly all actives have a fitted effect of over 55% in size
Conditions: purified 15hLO-1, xylenol orange hydroperoxide absorbance; activity change, negative = inhibition: at 57.1 µM (top of the series) unless noted
Excerpt: Assay Overview: NIH Molecular Libraries Screening Centers Network [MLSCN] NIH Chemical Genomics Center [NCGC] MLSCN Grant: MH081283-01A1 PI Name: Holman, T.R., University of California, Santa Cruz Human lipoxygenase 15hLO-1 is a member of the closely related lipoxygenase family of enzymes which catalyze the site-specific oxidation of arachidonic acid to various hormone precursor molecules and as such is a candidate for drug development in a variety of disease areas, such as cancer and inflammation. Inhibition of 15hLO-1 activity was screened by utilizing arachidonic acid as a substrate. The extent of hydroperoxide product formation was measured by a secondary chromogenic reaction in which xylenol orange (XO, Sigma-Aldrich, cat. number 39,818-7) reacts with the ferric ions produced from the reaction between the hydroperoxide and ferrous ions. The Fe(III)-XO complex is characterized with red-shifted absorbance at 560 nm. A purified preparation of human 15hLO-1 was supplied by Professor Ted Holman, University of California, Santa Cruz.
Assay Protocol: Buffer: 25 mM Hepes pH 7.5, 0.01% Triton X-100. Reagents/Controls: Buffer in columns 3 and 4 as negative control (no enzyme). Substrate solution: 50 uM arachidonic acid (Sigma-Aldrich, St. Louis, MO) final concentration dispensed throughout the plate. Enzyme: 40 nM 15hLO-1 final concentration in columns 1, 2, 5-48. Column 1 is neutral (100% activity). Column 2 contained pin-transferred titration of NDGA (nordihidroguaiaretic acid, Sigma-Aldrich, N 5023, top concentration 10 mM in DMSO, then 1:2 dilution in duplicate). (Dilution factor: 23 nL into 4 uL.) Chromogenic detection reagent (divalent iron/xylenol orange, Fe-XO): 200 uM xylenol orange plus 300 uM ferrous ammonium sulfate prepared freshly in 50 mM sulfuric acid. Assay Steps: Three uL of enzyme were dispensed to 1536-well Greiner black clear bottom plates. Compounds and controls (23 nL) were transferred via Kalypsys PinTool. The plates were incubated for 15 min at room temperature, and then 1 uL of substrate solution was added to start the reaction. After room temperature incubation for 6 minutes, 4 uL of Fe-XO solution was added to each well followed by a short spin (1000 rpm, 15 sec) and the plates were then incubated for 30 min. The absorbance at 405 and 573 nm were measured using ViewLux (Perkin-Elmer) High-throughput CCD imager and absorbance protocol settings. The 573-to-405 absorbance ratio was used to compute reaction progress.
% is set by controls: 0 for no effect and ±100 for the full control effect; potency is the fitted concentration of half-maximal effect; tags give direction and shape of the fitted curve.

Chain of UniProt P16050 (P16050 whole entry, looked up): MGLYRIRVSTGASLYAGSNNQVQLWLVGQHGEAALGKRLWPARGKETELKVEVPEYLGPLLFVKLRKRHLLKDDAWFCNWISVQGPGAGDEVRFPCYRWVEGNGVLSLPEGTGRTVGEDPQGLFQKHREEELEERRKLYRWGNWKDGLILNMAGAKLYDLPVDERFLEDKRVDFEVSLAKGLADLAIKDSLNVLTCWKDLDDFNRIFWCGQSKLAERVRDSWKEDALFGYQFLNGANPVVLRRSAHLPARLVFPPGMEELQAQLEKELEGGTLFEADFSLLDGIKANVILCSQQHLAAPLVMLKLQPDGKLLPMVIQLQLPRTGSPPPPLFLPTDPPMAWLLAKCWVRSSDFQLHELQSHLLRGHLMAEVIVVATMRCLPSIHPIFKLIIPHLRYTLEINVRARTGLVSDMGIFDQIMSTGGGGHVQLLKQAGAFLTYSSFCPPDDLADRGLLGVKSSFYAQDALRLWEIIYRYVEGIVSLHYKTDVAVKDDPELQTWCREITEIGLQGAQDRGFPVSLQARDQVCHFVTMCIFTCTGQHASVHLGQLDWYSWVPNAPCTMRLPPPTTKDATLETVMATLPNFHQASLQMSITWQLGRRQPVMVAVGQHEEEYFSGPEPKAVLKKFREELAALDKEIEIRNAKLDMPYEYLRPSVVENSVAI

Structure (SMILES) | Potency | activity change, negative = inhibition
COc1ccc(-c2[nH]ncc2Oc2ccccc2OC)c(O)c1 | inconclusive [inhibitor, partial curve] | 
COc1cc(C2CC(=O)N3CN(c4ccccc4C)CSC3=C2C#N)cc(OC)c1OC (stereo not given) | active: 3.98 µM | 
Cc1nnc(NC(=O)C(C)Sc2nncn2C)s1 (stereo not given) |  | inactive: 6.41%
CCO/C=N/c1c(C#N)c2c(c(=S)n1C)COC(C)(C)C2 | inconclusive [inhibitor, single point] | 
Nc1nc(Nc2ccc(Cl)cc2Cl)nc(C(F)(F)F)n1 | inconclusive [inhibitor, single point] | 
CC(NC(=O)c1cccs1)C(c1cccs1)N1CCOCC1 (stereo not given) | inconclusive [inhibitor, single point] | 
Cn1c(=O)cc(N2CCc3ccccc32)[nH]c1=O | inconclusive [inhibitor, single point] | 
COc1ccc(C2Oc3cc(OC)cc(OC)c3CC2O)cc1 (stereo not given) |  | inactive: -7.74%
CC(C)C1C(C#N)=C(N)Oc2n[nH]c(-c3cccs3)c21 (stereo not given) | inconclusive [inhibitor, single point] | 
CO[C@H]1COC(=O)C/C=C\[C@H](C)[C@@H](OC)COC(=O)[C@@H](C)COC(=O)C/C=C\[C@@H]1C |  | inactive: 4.57% [at 11.4 µM]
CCn1c2ccccc2c2nc3cc(S(=O)(=O)N4CCOCC4)ccc3nc21 | inconclusive [inhibitor, full curve] | 
CCN(CC)CCNC(=O)CCCCn1c(=S)[nH]c2c([nH]c3ccc(OC)cc32)c1=O | active: 12.6 µM | 
COc1ccc(-c2coc3cc(O)ccc3c2=O)c(O)c1O | active: 12.6 µM | 
S=c1[nH]c2ccc(Cl)cc2[nH]1 | inconclusive [inhibitor, partial curve] | 
COc1ccc2c(c1)C(=O)CC(c1ccccc1F)O2 (stereo not given) | inconclusive [inhibitor, single point] | 
CC(=O)C1=C(C)NC(SCC(N)=O)=C(C#N)C1c1cccnc1 (stereo not given) | inconclusive [inhibitor, partial curve] | 
CCCCn1c(=O)[nH]c(=O)c2c1nc(COc1ccc(C#N)cc1)n2CCC |  | inactive: -3.91%
COc1ccc(N2CSC3=C(C#N)C(c4cccs4)CC(=O)N3C2)cc1 (stereo not given) | inconclusive [inhibitor, full curve] | 
CN1C(C(=O)Nc2ccccn2)=C(O)c2ccccc2S1(=O)=O | inconclusive [inhibitor, single point] | 
O=C1c2ccccc2C(=O)c2c(NC3CCCCC3)ccc(Nc3ccc(S(=O)(=O)O)cc3)c21 |  | inactive: -26.8% [at 11.4 µM]
CCCCC(c1nnnn1Cc1ccco1)N1CCN(c2nc3ccccc3s2)CC1 (stereo not given) | inconclusive [inhibitor, single point] | 
CC(C)Sc1nc2c(c(=O)[nH]c(=O)n2C)n1Cc1ccc(Cl)cc1 |  | inactive: -28.9%
Cc1ccccc1-n1c(-c2ccncc2)n[nH]c1=S | inconclusive [inhibitor, partial curve] | 
COC(=O)C1=C(C)OC(N)=C(C#N)C1c1cc(OC)c(OCC(N)=O)cc1Cl (stereo not given) | inconclusive [inhibitor, full curve, poor fit] | 
COc1ccccc1N1CCN(C(=O)Cn2nc(C(F)(F)F)c3c2CCC3)CC1 | inconclusive [inhibitor, single point] | 

Structure (SMILES) | Potency | activity change, negative = inhibition
O=C(NCCC1=CCCCC1)C1CCN(S(=O)(=O)c2cccc3cccnc23)CC1 | inconclusive [inhibitor, single point] | 
O=C(c1ccco1)N1CCN(c2c(-c3ccccc3)c3cc(Cl)ccc3[nH]c2=O)CC1 | inconclusive [inhibitor, partial curve] | 
Cc1occc1-c1nnc(SCC(=O)Nc2ccccc2N2CCCCC2)n1C |  | inactive: -28.4%
Nc1c(S(=O)(=O)c2cccs2)c2nc3ccccc3nc2n1CC1CCCO1 (stereo not given) |  | inactive: -19.1%
CN(C)Cc1ccccc1-c1nccc(N(C)Cc2ccco2)n1 |  | inactive: 21%
O=c1oc2c3c4c(cc2cc1-c1nc2ccccc2[nH]1)CCCN4CCC3 |  | inactive: -18.7%
CCCc1[nH]nc2c1C(c1ccc(OC)c(Cn3nc(C)c(Br)c3C)c1)C(C#N)=C(N)O2 (stereo not given) | inconclusive [inhibitor, partial curve] | 
CCOc1ccc(-c2cc(C(=O)N/N=C/c3ccc(O)c(OC)c3)[nH]n2)cc1 |  | inactive: -28.2%
Cc1cccc(Nc2nn3c(=O)c4ccccc4nc3s2)c1 |  | inactive: -7.69%
Cc1ccc(-c2cc(-c3ccc4c(c3)OCO4)c(C#N)c(N)n2)o1 | active: 10 µM | 
Oc1c(CN2CCOCC2)ccc(CN2CCOCC2)c1O | inconclusive [inhibitor, single point] | 
CCC(=O)N(Cc1cc2cc(OC)ccc2[nH]c1=O)c1ccc(C)cc1C | inconclusive [inhibitor, single point] | 
O=C(c1csc(Nc2ccccc2Cl)n1)N1CCCC1 | inconclusive [inhibitor, single point] | 
CCOc1ccc(NCc2nnc(SCC(=O)Nc3cc(C)on3)n2-c2ccc(OC)cc2)cc1 |  | inactive: -10.9%
CN1CCN(C(=O)CSc2nc(-c3cccs3)cc(-c3cccs3)c2C#N)CC1 | active: 15.8 µM | 
CN(Cc1ccco1)c1ncncc1-c1cccc(NS(C)(=O)=O)c1 | inconclusive [inhibitor, partial curve] | 
C=CC[C@@H]1C=C[C@H](O/N=C(\C)CCN2CCCc3nc(C)c(C)cc32)[C@H](CO)O1 |  | inactive: -9.14% [at 11.4 µM]
O=C(Nc1cc(Cl)ccc1N1CCOCC1)c1cnccn1 | inconclusive [inhibitor, full curve] | 
O=c1c2cc(N3CCOCC3)ccc2[nH]c(=S)n1Cc1ccco1 | inconclusive [inhibitor, partial curve] | 
CCN(CCCNC(=O)CC1Oc2ccc(C)cc2NC1=O)Cc1ccccc1 (stereo not given) | active: 10 µM | 
CC1Cc2ccccc2N1C(=O)CSc1nnc(-c2ccc(S(=O)(=O)N3CCCC3)cc2)o1 (stereo not given) | inconclusive [inhibitor, single point] | 
CCOc1cc(C(=O)NC(C)c2ccncc2)cc(OCC)c1OCC (stereo not given) |  | inactive: 2.03%
CCCn1c(C)nc2c(N(CCN(C)C)Cc3ccccc3)nc(C)nc21 | active: 15.8 µM | 
CCCCOc1ccc(C2C3CN(C(=O)OCC)CC=C3C(C#N)=C(N)C2(C#N)C#N)cc1OC (stereo not given) | inconclusive [inhibitor, single point] | 
O=CNC1CCCc2c1[nH]c1ccc(Cl)cc21 (stereo not given) | inconclusive [inhibitor, full curve] | 

Structure (SMILES) | Potency | activity change, negative = inhibition
Cc1noc(C)c1-c1cncnc1NC1CC1 | inconclusive [inhibitor, single point] | 
COc1ccc(C2C(C#N)=C(N)Oc3cc(O)ccc32)cc1OC (stereo not given) | active: 10 µM | 
CCOC(=O)NC[C@H](Cc1ccc(OCCc2nc(-c3ccccc3)oc2C)cc1)N/C(C)=C\C(=O)c1ccc(C(F)(F)F)cc1 | inconclusive [inhibitor, single point] | 
CCCCCCCCNC(C)C(O)c1ccc(SC(C)C)cc1 (stereo not given) | inconclusive [inhibitor, single point] | 
NCc1ccc(C(=O)O)cc1 |  | inactive: -0.758% [at 11.4 µM]
CCOc1ccc(-c2nc(CSc3nncs3)cs2)cc1OC |  | inactive: -3.19%
CN=C1c2ccccc2CN1c1cccc(C(=O)OC)c1 |  | inactive: -3.77%
Cc1c(C(=O)N2CCN(c3ccccn3)CC2)oc2ccccc12 |  | inactive: -11.4%
Cc1cnc(CNc2ncncc2-c2ccccc2CN(C)C)cn1 |  | inactive: -13.6%
O=C(NCc1ccccc1)c1cc(S(=O)(=O)N2CCOCC2)ccc1F | inconclusive [inhibitor, partial curve, poor fit] | 
COc1ccc(CNc2ncnc3ccc(-c4ccc5c(c4)OCO5)cc23)c(OC)c1 | inconclusive [inhibitor, single point] | 
CCCOc1ccc(Br)cc1-c1cc(-c2ccc(Cl)cc2)[nH]c1-c1ccncc1 | inconclusive [inhibitor, single point] | 
CCOC(=O)c1ccc(NC(=O)c2nccnc2C(=O)O)cc1 | inconclusive [inhibitor, single point] | 
c1ccc(Cn2c(-c3ccco3)nc3nc4ccccc4nc32)cc1 |  | inactive: -17.8%
COc1ccc(O)c(-c2c(-c3ccc(Cl)cc3)n[nH]c2C)c1 | active: 25.1 µM | 
COc1ccc2[nH]cc(CCNc3ncncc3-c3cccc(NS(C)(=O)=O)c3)c2c1 | inconclusive [inhibitor, partial curve] | 
COC(=O)c1ccc(NC(=O)Nc2ccc(F)cc2)cc1 |  | inactive: 4.26%
O=C1Nc2ccc(I)cc2/C1=C/c1cc(Br)c(O)c(Br)c1 | active: 12.6 µM | 
CN(C)CCNc1c2c(c(C#N)c3nc4ccccc4n13)CCCC2 |  | inactive: 0.568%
Oc1ccc2ccccc2c1/C=C\c1ccc2c(Br)cc(Br)c(O)c2n1 | inconclusive [inhibitor, full curve] | 
CCOC(=O)c1oc2ccc(Br)cc2c1NC(=O)CN1CCN(C)CC1 |  | inactive: 12.9%
Cc1ccc(NC(=O)Cn2cccc2)cc1C |  | inactive: 9.29%
COc1ccc(-c2ccc(-c3noc(-c4ccccc4C)n3)c(OC)n2)cc1 |  | inactive: 2.28%
CCCn1nnc(NC(=O)COc2ccc(C3CCCCC3)cc2)n1 | inconclusive [inhibitor, single point] | 
Cc1cccc(CNc2cc(-c3ccc(C(=O)N(C)C)cc3)ncn2)c1 |  | inactive: -21.1%
